From patent US4358458A, “Tertiary imidazolyl alcohols and method for the treatment of generalized and local infections caused by fungi and yeasts” (Nordmark-Werke GmbH, priority 1976, dated 1982)
The name of at least one read-out is uncertain.

What was measured:
Format in all cases: cell-based
Candida albicans = experiment: series dilution test in vitro, Candida albicans
Experimental: The antimicrobial activity of the compounds corresponding to general formula (I) in vitro was tested in a series dilution test with dilution ratios of from 1:10,000 to 1:200,000 against the germs Staphylococcus aureus, Trichophyton mentagrophytes and Candida albicans.
The results were evaluated by the following graduations of the growth inhibition level:
.phi.=complete inhibition
The following dilution ratios were selected as the dilution ratio V: […]

Staphylococcus aureus = experiment: series dilution test in vitro, Staphylococcus aureus
[1] = test system: Trichophyton mentagrophytes; experiment: series dilution test in vitro, Trichophyton mentagrophytes

| Compound | growth inhibition level, Candida albicans (Candida albicans; dilution a=1:10,000) | growth inhibition level, Staph. aureus (Staphylococcus aureus; dilution a=1:10,000) | growth inhibition level, Staph. aureus (Staphylococcus aureus; dilution b=1:100,000) | growth inhibition level, Trichoph. mentag. ([1]; dilution a=1:10,000) | growth inhibition level, Trichoph. mentag. ([1]; dilution b=1:100,000) | growth inhibition level, Candida albicans (Candida albicans; dilution b=1:100,000) | growth inhibition level, Candida albicans (Candida albicans; dilution c=1:200,000) | growth inhibition level, Trichoph. mentag. ([1]; dilution c=1:200,000) |
| --- | --- | --- | --- | --- | --- | --- | --- | --- |
| OC(Cc1ccc(Cl)cc1)(Cn1ccnc1)c1ccccc1 (stereo not shown) [Example 28, 1-(4-chlorophenyl)-2-phenyl-3-(imidazol-1-yl)-propan-2-ol nitrate] | (+) | .phi. | +++ | .phi. | +++ |  |  |  |
| OC(Cc1ccc(Cl)cc1)(Cn1ccnc1)c1ccc(Br)cc1 (stereo not shown) [Example 29, 1-(4-chlorophenyl)-2-(4-bromophenyl)-3-(imidazol-1-yl)-propan-2-ol nitrate] | .phi. | .phi. | .phi. | .phi. | (+) | (+) |  |  |
| OC(Cc1ccc(Cl)cc1Cl)(Cn1ccnc1)c1ccccc1 (stereo not shown) [Example 34, 1-(2,4-dichlorophenyl)-2-phenyl-3-(imidazol-1-yl)-propan-2-ol nitrate] | (+) | +++ |  | .phi. | + | +++ |  |  |
| COc1ccc(C(O)(Cc2ccc(Cl)c(Cl)c2)Cn2ccnc2)cc1 (stereo not shown) [Example 39, 1-(3,4-dichlorophenyl)-2-(4-methoxyphenyl)-3-(imidazol-1-yl)-propan-2-ol nitrate] | .phi. | .phi. | .phi. | .phi. | +++ | (+) |  |  |
| OC(Cc1ccc(Cl)cc1Cl)(Cn1ccnc1)c1ccc(Cl)cc1Cl (stereo not shown) [Example 9, 1,2-bis-(2,4-dichlorophenyl)-3-(imidazol-1-yl)-propan-2-ol-nitrate] | .phi. | .phi. | .phi. | .phi. | .phi. | .phi. | (+) | .phi. |
| OC(Cc1ccccc1)(Cn1ccnc1)c1ccc(Cl)cc1Cl (stereo not shown) [Example 17, 1-phenyl-2-(2,4-dichlorophenyl)-3-(imidazol-1-yl)-propan-2-ol nitrate] | .phi. | .phi. | .phi. | .phi. | .phi. | (+) |  |  |
| OC(Cc1ccccc1)(Cn1ccnc1)c1ccc(Cl)cc1 (stereo not shown) [Example 15, 1-phenyl-2-(4-chlorophenyl)-3-(imidazol-1-yl)-propan-2-ol nitrate] | .phi. | +++ |  | (+) | +++ | +++ |  |  |
| Cl.OC(Cc1ccc(Cl)cc1)(Cn1ccnc1)c1ccc(Cl)cc1Cl (stereo not shown) [Example 30, 1-(4-chlorophenyl)-2-(2,4-dichlorophenyl)-3-(imidazol-1-yl)-propan-2-ol hy drochloride] | .phi. | .phi. | .phi. | .phi. | .phi. | .phi. | (+) | .phi. |
| OC(Cn1ccnc1)(c1cccc(Cl)c1)c1cccc(Cl)c1 [Example 2, 1,1-bis-(3-chlorophenyl)-2-(imidazol-1-yl)-ethan-1-ol] | (+) | .phi. | +++ | .phi. | ++ | +++ |  |  |
| OC(Cc1ccc(Cl)cc1)(Cn1ccnc1)c1ccc(Cl)cc1 (stereo not shown) [Example 8, 1,2-bis-(4-chlorophenyl)-3-(imidazol-1-yl)-propan-2-ol nitrate] | .phi. | .phi. | + | .phi. | ++ | +++ |  |  |
| Cc1ccc(CC(O)(Cn2ccnc2)c2ccc(Cl)cc2Cl)cc1 (stereo not shown) [Example 45, 1-(4-methylphenyl)-2-(2,4-dichlorophenyl)-3-(imidazol-1-yl)-propan-2-ol ni trate] | .phi. | .phi. | .phi. | .phi. | .phi. | .phi. |  |  |
| Cc1cc(Cl)ccc1C(O)(Cc1ccccc1Cl)Cn1ccnc1 (stereo not shown) [Example 26, 1-(2-chlorophenyl)-2-(4-chloro-2-methylphenyl)-3-(imidazol-1-yl)-propan-2-ol nitrate] | .phi. | .phi. | .phi. | .phi. | .phi. | (+) |  |  |
